From PubChem BioAssay AID1347073 (National Center for Advancing Translational Sciences (NCATS), 2019)
In all, about 45,000 compounds went through this assay and about 200 (0.44%) were called active. Inconclusive results (about 7%) are left out. The call rests on the fitted dose curve; in most records, active means well fitted activation curve with a large enough effect; inconclusive means small, poorly fitted or top-dose-only effect; inactive means no such curve, though single readings can be large or run the other way. The list shows a part of the results.

Test: qHTS of TDP-43 Inhibitors: NCGC Sytravon Library Screen; further: nearly all actives have a fitted effect of over 55% in size; on growth rescue (activation): 0% is about no effect
Conditions: yeast TDP-43 toxicity rescue, BacTiter-Glo growth, 24 h; series mostly up to 46.1 µM; growth rescue (activation): at the top concentration
Procedure, shortened: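 TDP-43-expressing yeast, pregrown in raffinose, seeded at OD600 0.02 in galactose medium with compound for 24 hr at 30 deg C. Growth read by BacTiter-Glo luminescence, so rescue of toxicity appears as activation.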
Potency means the concentration at half of the fitted maximal effect.

Structure (SMILES)	growth rescue (activation)	Potency
CCOCc1cc(CN2CCN(c3ccccc3OC)CC2)c(O)c2ncccc12	inactive: 0.423%	–
Cc1nnc(NC(=O)C2CCN(S(=O)(=O)c3ccc(F)c(Cl)c3)CC2)o1	inactive: 3.76%	–
Cc1csc(SCCn2c(N3CCN(c4ccccc4)CC3)nc3c2c(=O)[nH]c(=O)n3C)n1	inactive: 12.9%	–
CCOc1ccc(CCNC(=O)c2ccc(CNS(=O)(=O)c3ccccc3)cc2)cc1OCC	inactive: 16.9%	–
COc1ccc(NC(=O)c2cccnc2N2CCOCC2)cc1	inactive: -6.87%	–
O=C(Nc1nnc(-c2ccccc2F)s1)c1ccccc1F	inactive: 1.33%	–
CCOC(=O)c1ccc(S(=O)(=O)NCCNCc2ccccc2)cc1	inactive: -16.9%	–
COc1ccc(Nc2cc(C)nc3ncnn23)cc1	inactive: -0.102%	–
CC1(C(=O)NS(=O)(=O)c2cccc(F)c2)CCN1C(=O)Cc1ccc(-c2ccccc2)cc1 (stereo not given)	inactive: 22.5%	–
COc1ccccc1CCC(=O)NNC(=O)c1ccc(Br)cc1	inactive: 23.2%	–
CCOC(=O)N1CCN(Cc2nc3cc(NC(=O)c4cccc(C)c4)ccc3n2C(C)C)CC1	inactive: 8.48%	–
COC(=O)CN1C(=S)N(c2ccc(F)cc2)C(=O)C1CC(=O)Nc1ccc(F)cc1 (stereo not given)	inactive: -4.77%	–
O=C(Nc1ccccc1C(=O)O)c1cc(S(=O)(=O)N2CCOCC2)cs1	inactive: 8.62%	–
O=C(c1cc(-c2ccncc2)nc2ccccc12)N1CCN(Cc2ccccc2)CC1	inactive: 2.69%	–
CC1(C(=O)NS(=O)(=O)c2ccc(Cl)cc2)CCN1C(=O)Cc1cc(F)ccc1F (stereo not given)	inactive: 14%	–
O=C(Nc1cccnc1)c1cccc(NC(=O)c2ccco2)c1	inactive: -11.9%	–
O=C(COC(=O)/C=C/c1cc(Br)ccc1F)NC1CC1	inactive: -2.94%	–
CCOC(=O)CC(NC(=O)CCc1c(C)nc2ncnn2c1C)c1ccc(C)cc1 (stereo not given)	inactive: -0.569%	–
Cc1csc(NC(=O)[C@@H](NC(=O)c2ccccc2)C(C)C)n1	inactive: 7.48%	–
COc1cccc(NC(=O)C2CCCN(S(=O)(=O)c3cccc4nonc34)C2)c1 (stereo not given)	inactive: -2.78%	–
Cc1ccc(C(=O)NCCCNc2ccc(C(F)(F)F)cc2[N+](=O)[O-])cc1	inactive: 0.784%	–
Oc1ccccc1Nc1nc2ccccc2n2nnnc12	inactive: 5.14%	–
CC(C)[C@H](NS(=O)(=O)c1ccccc1)C(=O)OCC(=O)NCc1ccc2c(c1)OCO2	inactive: 0.697%	–
Cc1[nH]c2ccccc2c1N=Nc1c(C)n(C)n(-c2ccccc2)c1=O	inactive: 13.4%	–
COc1ccc(-c2[nH]ncc2CN(Cc2nccn2C)C(C)C)c(F)c1	inactive: -3.89%	–
O=C(c1cccc(S(=O)(=O)N2CCCc3ccccc32)c1)N1CCN(c2ccccc2)CC1	inactive: 29.2%	–
CCN(CC)CCOC(=O)c1ccc(NC(=O)CNC(=O)C2CCCCC2)cc1	inactive: -0.391%	–

Structure (SMILES)	growth rescue (activation)	Potency
COc1ccc(O)c(C2=Nc3ccccc3N=C(c3ccccc3)C2)c1	inactive: 9.17%	–
Cc1cc(C)nc(NC2=NCC(=O)N2c2ccc(F)c(Cl)c2)n1	inactive: -3.65%	–
O=C(O)c1cc(NC(=O)c2ccc([N+](=O)[O-])cc2)cc(NC(=O)c2ccc([N+](=O)[O-])cc2)c1	inactive: 2.1%	–
N=C1C(c2ccccc2)=C(O)CN1c1cccc(S(N)(=O)=O)c1	inactive: 0.936%	–
CC(=O)Nc1cc(-c2ccc(S(C)(=O)=O)cc2)cn2c(-c3ccc(F)cc3)cnc12	inactive: -6.38%	–
O=C(CNCc1ccccc1Cl)NCc1ccco1	inactive: 8.47%	–
CC(C)c1cccc(-c2csc(C(O)c3ccc(F)cc3)n2)c1 (stereo not given)	inactive: -6.87%	–
CC1N(C(=O)N2CCOCC2)CCN1S(=O)(=O)c1ccc(Cl)cc1 (stereo not given)	inactive: -7.09%	–
CCCn1ncc(CN2CCN(Cc3ccsc3)C(CCO)C2)c1C (stereo not given)	inactive: -5.8%	–
Cc1cccc(Nc2nc(N)c([N+](=O)[O-])c(N3CCCC(C)C3)n2)c1 (stereo not given)	inactive: -93%	–
Cc1cccc(C(=O)Nc2ccccc2C(=O)Nc2ccc(C(=O)O)cc2)c1	inactive: -1.67%	–
Cc1cccn2c(=O)c3cc(C(=O)NCC4CCCO4)c(=N)n(Cc4cccnc4)c3nc12 (stereo not given)	inactive: 3.41%	–
Cc1ccc(C)c(S(=O)(=O)NCCCN2CCOCC2)c1	inactive: -0.693%	–
COCCSc1nnc(NC(=O)C2CCN(C(=O)c3ccco3)CC2)s1	inactive: 6.15%	–
COC(=O)C1=CN(Cc2ccc(C)cc2)C=C(C(=O)OC)C1c1ccc(F)c(F)c1	inactive: -3.28%	–
CCC(CC)c1nnc(NC(=O)CN2C(=O)c3ccccc3C2=O)s1	inactive: -8.36%	–
CN1CCN(c2cc(-c3cccc(C(=O)O)c3)nc3ccnn23)CC1	inactive: 2.96%	–
O=C(COC(=O)c1cccc(NS(=O)(=O)c2ccc(F)c(F)c2)c1)NC(=O)NC1CCCC1	inactive: -30.6%	–
COc1ccc(CCNC(=O)CCc2nnc(Cc3ccc4c(c3)OCO4)o2)c(OC)c1	inactive: -10.5%	–
CCCCN1C(=O)C(=O)N(CC(=O)c2cc(C)n(C3CC3)c2C)C1=O	inactive: 10%	–
O=C(CCNC(=O)OCc1ccccc1)NC1CCCCC1	inactive: 13%	–
COc1ccc(-c2noc(CN(C(=O)C(C)Oc3ccc(C)cc3)C(C)C)n2)cc1 (stereo not given)	–	active: 20 µM
CCOc1ccc(NC(=O)N2CCN(c3ccc(Cl)c(Cl)c3)CC2)cc1	inactive: -0.5%	–
Cc1oc2c(C)c3oc(=O)c4c(c3cc2c1C)CCC4	inactive: 18.1%	–
O=C(O)c1ccccc1SCc1cn2cc(Cl)ccc2n1	inactive: -13.8%	–
CN1C(=O)/C(=C\c2ccco2)N=C1c1ccc(Cl)cc1Cl	inactive: -12.3%	–
O=C(/C=C/c1ccco1)NC(=S)Nc1ccc(O)c(-c2nc3ccccc3s2)c1	inactive: -6.12%	–

Structure (SMILES)	growth rescue (activation)	Potency
COc1ccc2[nH]c(=O)c(CN(C(=O)c3cccnc3)c3ccc(C)c(C)c3)cc2c1	inactive: 15.4%	–
O=C(CC1(O)C(=O)Nc2ccccc21)c1cccc(Br)c1 (stereo not given)	inactive: -30.6%	–
COc1ccccc1OCC(=O)N/N=C1\CCCCc2ccccc21	inactive: 30.1%	–
NS(=O)(=O)c1ccc(NC(=S)Nc2nn(Cc3ccc(Cl)cc3Cl)cc2Cl)cc1	inactive: 18.8%	–
CCCCNC(=O)[C@@H]1CSC2c3ccccc3C(=O)N21 (stereo not given in full)	inactive: -0.544%	–
O=C(CNC(=O)c1ccc(Cl)cc1Cl)OC1CCCCC1=O (stereo not given)	inactive: 32.1%	–
Cc1cccc(/C=N/n2c(-c3ccncc3)n[nH]c2=S)c1	inactive: 3.72%	–
COc1cc(CCC(=O)NNC(=O)c2cccc(Cl)c2)cc(OC)c1OC	inactive: 12.4%	–
CC(Sc1nnc2ccccn12)C(=O)Nc1ccc(N2CCOCC2)cc1 (stereo not given)	inactive: -5.24%	–
COc1ccccc1/C=C/C=N/NC(=O)c1ccccn1	inactive: 18.3%	–
COc1ccc(-n2c(CN3CCN(c4ccccc4)CC3)nc3ccc([N+](=O)[O-])cc3c2=O)c(OC)c1	inactive: 5.45%	–
CCCS(=O)(=O)NC(=O)C1(C)CCN(C(=O)c2cccc(C(F)(F)F)c2)C1 (stereo not given)	inactive: -6.48%	–
CC(NC(=O)COC(=O)c1c[nH]c2ccccc12)c1ccccc1 (stereo not given)	inactive: -17.4%	–
CC1CN(S(=O)(=O)c2ccc(C(=O)NC3CCCCC3)cc2)CC(C)O1 (stereo not given)	inactive: 23.1%	–
COC(=O)C(C)n1cnc2c(cnn2-c2ccc(Cl)cc2)c1=O (stereo not given)	inactive: 11.5%	–
COc1ccc2[nH]cc(CCNC(=O)C3CC(=O)N(c4ccc(Cl)cc4)C3)c2c1 (stereo not given)	inactive: -32.9%	–
O=C(c1ccc(-n2cnnn2)cc1)N1CCOCC1	inactive: -1.5%	–
CC1(C(=O)NCc2ccccc2Br)CCN1Cc1ccc2ccccc2c1 (stereo not given)	inactive: 4.91%	–
COc1ccc(NS(=O)(=O)c2cccc(NC(=O)C34CCC(CC3)C4)c2)cc1	inactive: 15.1%	–
Cc1ccc(S(=O)(=O)N2CCCCC2)cc1C(=O)NCC1CCCO1 (stereo not given)	inactive: -7.56%	–
COc1cccc(C(=O)NNC(=O)C(=O)Nc2ccc(C)c(Cl)c2)c1	inactive: 6.2%	–
CCOc1ccc(N(CC(=O)Nc2c(C)n(C)n(-c3ccccc3)c2=O)S(=O)(=O)c2ccc(F)cc2)cc1	inactive: 7.64%	–
COc1ccc(NC(=O)CN(C)CC(=O)Nc2ccccc2SC)cc1Cl	inactive: -6.14%	–
CCCCCC1CCC(c2ccc(C(N)=O)cc2)CC1 (stereo not given)	inactive: 19.5%	–
C=CCOc1ccc(CNCCc2ccc(S(N)(=O)=O)cc2)cc1	inactive: -5.33%	–
CC(NS(=O)(=O)c1ccc(Br)cc1)C(=O)NCc1ccco1 (stereo not given)	inactive: -15.8%	–
O=C(CCNS(=O)(=O)c1ccc(Cl)cc1)NCc1cccs1	inactive: 3.91%	–

Structure (SMILES)	growth rescue (activation)	Potency
COc1ccc(C2CC(=O)C3=C(C2)Nc2ccccc2NC3c2coc3ccccc3c2=O)cc1OC (stereo not given)	inactive: -5.75%	–
C/C(CC(=O)Nc1cccc(Cl)c1Cl)=N\NC(=O)C(=O)N1CCCC1	inactive: 2.5%	–
COc1ccc(CN(Cc2ccc(C(=O)O)cc2)C(=S)Nc2cccc(C)c2)cc1OC	inactive: -3.41%	–
Cc1ccc(C(=O)O)cc1S(=O)(=O)Nc1ccccc1C(=O)NC1CC1	inactive: 17.1%	–
CCOc1ccc(NC(=O)C2=C(C)C(=O)OC23CCC(C)CC3)cc1 (stereo not given)	–	active: 12.6 µM
CNc1ccc(S(=O)(=O)NCC(=O)OCC(=O)Nc2cccc(Cl)c2Cl)cc1[N+](=O)[O-]	inactive: 8.49%	–
CC(C)Cc1[nH]c(=O)c(C#N)c2c1COC(C)(C)C2	inactive: -3.41%	–
O=C(CSc1ncn[nH]1)Nc1ccccc1Sc1ccc(Cl)cc1	inactive: 18.6%	–
CN(CC(=O)Nc1ccccc1C(F)(F)F)C(=O)CSc1nnnn1C	inactive: -6.4%	–
CCOc1ccc2[nH]c(=O)c(CN(CC3COCCO3)C(=O)C3CC3)cc2c1 (stereo not given)	inactive: 30.8%	–
COc1ccc(CC(=O)NNc2ncnc3c2cnn3-c2ccc(C)cc2)cc1OC	inactive: 2.72%	–
CCNS(=O)(=O)c1ccc(CCC(=O)NCCc2ccc(OC)cc2)cc1	inactive: 7.89%	–
O=C(O)C1CC(O)CN1S(=O)(=O)c1ccc2ccccc2c1 (stereo not given)	inactive: 20.8%	–
CCCOc1c(Br)cc(C2C3=C(CCCC3=O)N(CC)C3=C2C(=O)CCC3)cc1OC	inactive: 34.7%	–
CC(C)CC1NC(=O)N(Cc2nc3ccccc3s2)C1=O (stereo not given)	inactive: 11.6%	–
O=c1[nH]c2sc3c(c2c(=O)n1Cc1ccccc1)CCC3	inactive: -3.27%	–
Cc1c(C(=O)O)cccc1-c1ccc(C=O)o1	inactive: 17.9%	–
COc1cccc(NC(=O)NC2(C(=O)N3CCC(O)CC3)CCCCC2)c1	inactive: 15.2%	–
COc1ccc(CCNC(=O)CSCc2ccc(F)cc2)cc1OC	inactive: 5.01%	–
COc1ccc(N=C2NC(=O)S/C2=C\c2ccc(N(C)C)cc2)cc1	inactive: -1.5%	–
Cc1c(C)c2ccc(OCC(=O)N3CCOCC3)c(C)c2oc1=O	inactive: 3.3%	–
COC(=O)N/N=C\c1cc2c(cc1Br)OCO2	inactive: -6.55%	–
COC(=O)c1ccc(Nc2cc(C)nc3ccccc23)cc1	inactive: 12%	–
CC(OC(=O)c1ccc(S(=O)(=O)NCc2ccco2)cc1)C(=O)Nc1ccc(Cl)cn1 (stereo not given)	inactive: -18.1%	–
